Here are results for two molecules from WO2018134681A1.

The target in this experiment is TGF-β generated endogenously by the cultured cells (human CD4+ T cells). The experiment is described as follows: cell-based or functional assay. The note with it: scale: % iTreg at 50 pg/ml antibody.

B1: Ab1 (antibody, human IgG4 S228P, kappa)
heavy: QVQLVQSGAEVKKPGSSVKVSCKASGYTFSSNVISWVRQAPGQGLEWMGGVIPIVDIANYAQRFKGRVTITADESTSTTYMELSSLRSEDTAVYYCASTLGLVLDAMDYWGQGTLVTVSSASTKGPSVFPLAPCSRSTSESTAALGCLVKDYFPEPVTVSWNSGALTSGVHTFPAVLQSSGLYSLSSVVTVPSSSLGTKTYTCNVDHKPSNTKVDKRV[human IgG4 Fc with S228P (EU numbers) not written out]
light: ETVLTQSPGTLSLSPGERATLSCRASQSLGSSYLAWYQQKPGQAPRLLIYGASSRAPGIPDRFSGSGSGTDFTLTISRLEPEDFAVYYCQQYADSPITFGQGTRLEIKRTVAAPSVFIFPPSDEQLKSGTASVVCLLNNFYPREAKVQWKVDNALQSGNSQESVTEQDSKDSTYSLSSTLTLSKADYEKHKVYACEVTHQGLSSPVTKSFNRGEC
For the molecule B1, the percentage of iTreg (FOXP3+CD25+) in stimulated human CD4+ T cells, no exogenous TGF-β; 15% without antibody was 8.

B2: fresolimumab (antibody, human IgG4, kappa)
heavy: QVQLVQSGAEVKKPGSSVKVSCKASGYTFSSNVISWVRQAPGQGLEWMGGVIPIVDIANYAQRFKGRVTITADESTSTTYMELSSLRSEDTAVYYCASTLGLVLDAMDYWGQGTLVTVSSASTKGPSVFPLAPCSRSTSESTAALGCLVKDYFPEPVTVSWNSGALTSGVHTFPAVLQSSGLYSLSSVVTVPSSSLGTKTYTCNVDHKPSNTKVDKRV[human IgG4 Fc not written out]
light: B1 light
B2 showed a percentage of iTreg (FOXP3+CD25+) in stimulated human CD4+ T cells, no exogenous TGF-β; 15% without antibody of 7.
